According to patent US20220226313A1, “COMBINATION THERAPIES THAT INCLUDE AN AGENT THAT PROMOTES GLUCOSE OXIDATION AND AN INHIBITOR OF PYRUVATE DEHYDROGENASE KINASE” (IMBRIA PHARMACEUTICALS, INC., priority 2019, published 2022):

Molecular target: Potassium Channel hERG (Homo sapiens, UniProt Q12809)
Assay: in vitro

Sequence of UniProt Q12809 (Q12809 whole entry): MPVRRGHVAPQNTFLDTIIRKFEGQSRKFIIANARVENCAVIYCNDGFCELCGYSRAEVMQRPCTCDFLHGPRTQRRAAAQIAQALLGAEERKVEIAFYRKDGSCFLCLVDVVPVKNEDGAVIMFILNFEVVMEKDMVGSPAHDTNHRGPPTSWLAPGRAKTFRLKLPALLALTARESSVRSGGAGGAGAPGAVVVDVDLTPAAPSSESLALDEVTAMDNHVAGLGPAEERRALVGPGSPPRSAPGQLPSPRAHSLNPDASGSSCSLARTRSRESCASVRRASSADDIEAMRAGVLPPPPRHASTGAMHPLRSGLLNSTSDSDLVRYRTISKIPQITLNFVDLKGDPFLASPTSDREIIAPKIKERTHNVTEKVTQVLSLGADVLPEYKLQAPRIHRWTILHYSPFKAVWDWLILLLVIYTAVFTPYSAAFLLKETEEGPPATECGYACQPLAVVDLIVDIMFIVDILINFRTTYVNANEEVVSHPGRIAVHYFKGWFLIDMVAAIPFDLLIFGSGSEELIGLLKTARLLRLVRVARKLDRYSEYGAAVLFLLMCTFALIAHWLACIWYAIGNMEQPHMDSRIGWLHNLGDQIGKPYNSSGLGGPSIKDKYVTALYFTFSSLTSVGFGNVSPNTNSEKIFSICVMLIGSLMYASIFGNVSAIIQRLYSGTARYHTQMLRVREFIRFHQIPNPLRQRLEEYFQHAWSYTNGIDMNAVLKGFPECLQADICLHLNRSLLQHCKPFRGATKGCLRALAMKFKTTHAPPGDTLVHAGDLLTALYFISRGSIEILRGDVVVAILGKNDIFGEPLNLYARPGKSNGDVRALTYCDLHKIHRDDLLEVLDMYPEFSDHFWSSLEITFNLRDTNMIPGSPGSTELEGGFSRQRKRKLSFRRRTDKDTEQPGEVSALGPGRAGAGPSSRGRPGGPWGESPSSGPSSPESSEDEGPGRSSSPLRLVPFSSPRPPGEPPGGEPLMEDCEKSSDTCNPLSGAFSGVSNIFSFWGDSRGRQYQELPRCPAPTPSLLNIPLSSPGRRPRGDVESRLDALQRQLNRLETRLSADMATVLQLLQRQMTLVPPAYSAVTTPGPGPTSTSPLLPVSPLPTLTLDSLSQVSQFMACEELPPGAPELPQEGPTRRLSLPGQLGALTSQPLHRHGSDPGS

**Q.** How did the inhibition at 10 µM turn out when `COc1ccc(CN2CCN(CCO)CC2)c(OC)c1OC` [CV-8814, 2-(4-(2,3,4-trimethoxybenzyl)piperazin-1-yl)ethan-1-ol] was run?
**A.** < 50%
